Measured values as given in paper PMC11162469, “Discovery of RXFP2 genetic association in resistant hypertensive men and RXFP2 antagonists for the treatment of resistant hypertension” (Scientific Reports, 2024).
Values belong to the molecule of their own block, whether it stands above or below them.

Experiments:
rat RXFP1 = biological target: T1, rat RXFP1 (Rattus norvegicus, UniProt Q6R6I6); assay: Relaxin-stimulated cAMP assay in HEK293 stably expressing rat RXFP1; details: three-point selectivity screen, n = 2
T1 sequence (Q6R6I6 1-758): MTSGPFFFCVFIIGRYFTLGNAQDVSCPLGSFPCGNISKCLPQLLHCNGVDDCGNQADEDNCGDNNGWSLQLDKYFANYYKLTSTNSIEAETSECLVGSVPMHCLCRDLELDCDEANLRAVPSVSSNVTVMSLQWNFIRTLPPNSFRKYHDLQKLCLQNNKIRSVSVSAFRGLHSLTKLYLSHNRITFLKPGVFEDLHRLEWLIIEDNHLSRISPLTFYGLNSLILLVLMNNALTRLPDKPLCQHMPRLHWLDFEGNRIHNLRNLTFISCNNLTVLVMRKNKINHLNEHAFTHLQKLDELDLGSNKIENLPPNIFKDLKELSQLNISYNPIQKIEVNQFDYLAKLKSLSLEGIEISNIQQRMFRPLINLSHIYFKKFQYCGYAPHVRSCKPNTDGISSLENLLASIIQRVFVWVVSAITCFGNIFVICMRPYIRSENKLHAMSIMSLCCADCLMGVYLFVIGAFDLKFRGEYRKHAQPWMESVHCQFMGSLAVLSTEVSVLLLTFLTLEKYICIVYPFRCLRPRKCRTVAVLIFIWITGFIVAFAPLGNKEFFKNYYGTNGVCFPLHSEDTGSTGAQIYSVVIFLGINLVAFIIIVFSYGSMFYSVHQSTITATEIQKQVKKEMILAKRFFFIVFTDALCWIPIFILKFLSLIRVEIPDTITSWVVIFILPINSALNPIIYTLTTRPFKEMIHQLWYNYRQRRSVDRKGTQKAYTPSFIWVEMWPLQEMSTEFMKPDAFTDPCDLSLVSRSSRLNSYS

rat LDLa-linker = assay: Biacore S200 binding to rat LDLa-linker protein; details: Biacore S200, 1:1 fit; NB = No binding occurred
Method: (§1) Goat anti Rat Fc gamma fragment specific (Jackson Immunoresearch, 112-005-071) was immobilized at 30 µg/mL to a Series S CM5 chip (Cytiva Life Sciences). In three separate runs, twenty different purified recombinant rat anti RXFP2 antibodies were then captured to the CM5 chip at a concentration of 5 µg/mL. The antibody panel was captured; rat LDLa-linker or human LDLa-linker protein was flowed as analyte at the following concentrations: 20 nM, 10 nM, 5 nM, 2.5 nM, […], and 0 nM. Antibody kinetics were evaluated using a 1:1 fit model (Biacore S200).

human RXFP2 = biological target: T2, human RXFP2 (Homo sapiens, UniProt Q8WXD0); assay: INSL3-stimulated cAMP assay in HEK293 stably expressing human RXFP2; details: for IC50: read-out: HEK293-human RXFP2 cAMP IC50
T2 sequence (Q8WXD0 1-754): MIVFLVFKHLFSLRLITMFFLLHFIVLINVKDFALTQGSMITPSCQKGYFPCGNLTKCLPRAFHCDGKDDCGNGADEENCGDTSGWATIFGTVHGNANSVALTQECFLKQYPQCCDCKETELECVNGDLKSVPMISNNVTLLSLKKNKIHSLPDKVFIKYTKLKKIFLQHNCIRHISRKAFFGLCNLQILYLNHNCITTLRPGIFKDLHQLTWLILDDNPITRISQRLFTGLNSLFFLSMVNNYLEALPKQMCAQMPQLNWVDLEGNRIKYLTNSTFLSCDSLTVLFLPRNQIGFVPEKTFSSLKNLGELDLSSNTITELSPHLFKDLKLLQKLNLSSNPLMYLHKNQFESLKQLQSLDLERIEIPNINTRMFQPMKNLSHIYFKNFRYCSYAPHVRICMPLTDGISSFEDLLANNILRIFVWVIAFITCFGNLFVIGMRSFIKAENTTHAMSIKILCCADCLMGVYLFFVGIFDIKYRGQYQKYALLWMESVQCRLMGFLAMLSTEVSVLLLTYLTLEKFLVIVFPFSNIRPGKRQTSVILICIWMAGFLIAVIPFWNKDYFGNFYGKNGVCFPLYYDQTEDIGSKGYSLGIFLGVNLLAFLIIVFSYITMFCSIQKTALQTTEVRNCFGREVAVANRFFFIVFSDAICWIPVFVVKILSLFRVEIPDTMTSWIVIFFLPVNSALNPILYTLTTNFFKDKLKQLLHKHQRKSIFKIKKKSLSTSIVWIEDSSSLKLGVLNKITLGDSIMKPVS

rat RXFP2 [1] = biological target: T3, rat RXFP2 (Rattus norvegicus, UniProt F7EMH8); assay: INSL3-stimulated cAMP assay in HEK293 stably expressing rat RXFP2; details: INSL3 EC80-stimulated cAMP, stable expression, N = 2; for IC50: read-out: HEK293-rat RXFP2 cAMP IC50;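 as to all read-outs here: cAMP measured with an HitHunter kit in 384-well plates, 11-point dose–response curves up to 1 µM antibody, four-parameter variable-slope fit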
T3 sequence (F7EMH8 20-737): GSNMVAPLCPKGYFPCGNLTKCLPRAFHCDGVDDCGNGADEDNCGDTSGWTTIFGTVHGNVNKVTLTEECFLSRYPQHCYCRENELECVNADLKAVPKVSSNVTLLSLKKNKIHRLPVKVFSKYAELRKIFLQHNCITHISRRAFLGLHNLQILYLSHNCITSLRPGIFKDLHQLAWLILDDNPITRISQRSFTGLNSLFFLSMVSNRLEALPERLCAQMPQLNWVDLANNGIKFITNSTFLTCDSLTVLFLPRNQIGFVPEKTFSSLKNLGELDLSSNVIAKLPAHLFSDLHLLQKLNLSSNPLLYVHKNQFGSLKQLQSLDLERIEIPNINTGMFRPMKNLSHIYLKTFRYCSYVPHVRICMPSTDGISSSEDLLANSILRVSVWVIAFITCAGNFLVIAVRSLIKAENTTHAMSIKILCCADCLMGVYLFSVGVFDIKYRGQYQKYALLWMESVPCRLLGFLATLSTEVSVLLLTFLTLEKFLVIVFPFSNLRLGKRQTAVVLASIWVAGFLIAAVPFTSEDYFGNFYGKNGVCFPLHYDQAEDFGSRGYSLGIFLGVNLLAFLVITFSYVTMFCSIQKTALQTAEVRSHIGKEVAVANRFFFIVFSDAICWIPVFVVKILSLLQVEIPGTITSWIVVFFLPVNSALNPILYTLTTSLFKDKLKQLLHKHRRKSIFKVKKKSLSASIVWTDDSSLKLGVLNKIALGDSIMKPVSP

human LDLa-linker = biological target: T4, human LDLa-linker (Homo sapiens, UniProt Q8WXD0); assay: Biacore S200 binding to human LDLa-linker protein
T4 construct: human LDLa linker [huRXFP2-LDLa-linker(38-105)-ratFc-8XHIS]; enterokinase cleavage site (C); rat Fc (C, cleaved yes); 8xHis (C, cleaved yes); made in house; host or cells: Expi293
T4 sequence (Q8WXD0 38-105): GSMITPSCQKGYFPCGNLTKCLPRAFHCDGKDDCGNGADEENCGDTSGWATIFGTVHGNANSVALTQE
Method: as §1

[2] = biological target: T5, human LDLa peptide (UnitProt Q8WXD0 43-80) (Homo sapiens, UniProt Q8WXD0); assay: ELISA binding to linker-less human LDLa peptide
T5 construct: human LDLa peptide (Q8WXD0 43-80)
T5 sequence (Q8WXD0 43-80 limits assumed): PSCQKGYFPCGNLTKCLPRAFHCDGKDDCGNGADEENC
Method: The human/rat RXFP2 cross reactive antibodies belong to two epitope bins and were further evaluated for binding to the linker-less human LDLa peptide (UnitProt Q8WXD0 43-80) by ELISA. […] The different domain requirements for binding are consistent with results from the binning experiment showing 4F6 and 4G6 are in a separate bin from 4B1.
Rat LDLa-linker_ratFc, human LDLa-linker_ratFc, or ratFc, or human LDLa peptide (Q8WXD0 43-80) was diluted to 1 µg/mL in 1X PBS and immobilized in separate 96-well ELISA plates (Nunc Maxisorp), 50 µL/well. The plates were then incubated overnight at 4 °C. The following day the plates were washed three times with ELISA wash buffer (PBS + 0.05% Tween-20) and then blocked with ELISA blocking buffer (PBS + 0.05% Tween-20 + 1% BSA), 200 µL/well, and incubated 1 h at room temperature on a shaker. Plates were again washed three times followed by the addition of the primary antibodies. Hybridoma supernatant was added neat, 50 µL/well; mouse serum was added 1:100 and then serially diluted 1:2 for 8 points, 50 µL/well. Purified antibodies were added 5 µg/mL in the first well and serially diluted down the plate 1:2 for 8 points, 50 µL/well. Primary antibody was incubated for 1 h at room temperature on a shaker. […] Stopping solution (2N Sulfuric acid) was added to the plates 50 µL/well, and then read on a plate reader (SpectraMax Molecular Devices) at 450 nm.

[3] = Pharmacokinetic study of RXFP2 mAbs in rat; format: in vivo, Wistar Han rats
Method: For the pharmacokinetic study of RXFP2 mAbs in rat, 1G1, 2D4, 4B1, 4G6, 1F2, and 3F3 were prepared in phosphate buffered saline (0.100 mg/mL) with low endotoxin (≤ 0.76 EU/mL). Adult male Wistar Han rats (n = 3/mAb) were administered 1 mg/kg subcutaneously (10 mL/kg). Blood samples (100 µL) were collected in EDTA containing tubes at 0.25, 3, 6 24, 48, 96, 168 (day 7), 336 (day 14), 504 (day 21), and 672 (day 28) hours post dose, immediately centrifuged (6100 rpm), and 50 µL plasma stored at − 80 °C until assay. Rats maintained health throughout the study and were anesthetized (isoflurane to effect) and euthanized on day 28.
Frozen rat plasma samples were thawed and analyzed using a qualified analytical method based on sample dilution, followed by Electrochemiluminescence immunoassay analysis. The lower limit of quantification (LLQ) was 0.1 µg/mL using a 10 µL aliquot of 51-fold diluted rat plasma with a higher limit of quantification (HLQ) of 10 µg/mL. RXFP2 mAbs were captured with LDLa protein and detected with sulfo-tag labeled mouse anti-rat IgG2b. The computer systems that were used to acquire and quantify data included Gyrolab Workstation Version 8.1.5 and Watson LIMS version 7.6.1. Rat pharmacokinetic parameters were calculated by non-compartmental analysis (NCA) analysis using WinNonlin Phoenix 64 (version 8.3). Values are reported in mean ± standard deviation.

rat RXFP2 [4] = biological target: T3, rat RXFP2; assay: INSL3-stimulated CYP11B2 mRNA expression in H295R stably expressing rat RXFP2; format: cell-based; design: expressed in transfected cells; details: INSL3 EC80 (3.5 nM), 48 h, qPCR; N = 2
Method: (§2) RXFP2 antagonists were added to H295R-rRXFP2 before addition of INSL3 EC80 (3.5 nM) for 48 h, whereupon the cells and supernatants were collected. CYP11B1 and CYP11B2 mRNA were determined by qPCR and the RXFP2 blocker potencies were calculated (Fig. 5a). Fifteen antibodies have IC50s < 50 nM, and three of the top antibodies (1F2, 4G6, and 2D4) were selected for evaluation in steroid hormone secretion assays by ELISA.
(§3) Data entered as XY table, with x = [Inhibitor] (nM) and y = CYP11B2 or CYP11B1 fold change.

rat RXFP2 [5] = biological target: T3, rat RXFP2; assay: INSL3-stimulated CYP11B1 mRNA expression in H295R stably expressing rat RXFP2; format: cell-based; design: expressed in transfected cells; details: INSL3 EC80 (3.5 nM), 48 h, qPCR; N = 2
Method: as §2, §3

[6] = INSL3 EC80-stimulated cAMP, stable expression, N = 2
[7] = male Wistar Han rats, 1 mg/kg s.c., n = 3, mean ± SD

blockade of rRXFP1 (relaxin-stimulated cAMP) (rat RXFP1): no blockade of rRXFP1 except for 4G7 | Kd (rat LDLa-linker): > 20 nM | IC50 (human RXFP2; [6]): ~311 nM | HEK293-rat RXFP2 cAMP % Max Response (rat RXFP2 [1]): 81.9% | IC50 (rat RXFP2 [1]): 45.5 nM
B1: 4G7: RXFP2 monoclonal antibody from hybridoma, recombinantly expressed in a rat IgG2b backbone (antibody, V domains shown)
VH: EVKLVESGGGLVQPGASLRLSCATSGFTFTDYYMSWVRQPPGKALEWLGFIRNKATGYTTEYSASVKGRFTISRDNSQSILYLQMNTLRAEDSATYYCARDLYYGDWYFDVWGAGTTVTVSS
VL: DIVLTQSPASLAVSLGQRATISCRASESVDKYGLSFMNWFQQKPGQPPKLLIYAASNQGSGVPARFSGSGSGTNFSLNIHPMEEDDTAMYFCQQSKEVPRTFGGGTKLEIK

blockade of hRXFP2 (human RXFP2; INSL3-stimulated cAMP, HEK293-hRXFP2): strong blockade | HEK293-human RXFP2 cAMP % Max Response (human RXFP2; [6]): 84.2% | IC50 (human RXFP2; [6]): 16.9 nM | cross reactivity to the human LDLa-linker (human LDLa-linker): cross reactivity | HEK293-rat RXFP2 cAMP % Max Response (rat RXFP2 [1]): 77.2% | IC50 (rat RXFP2 [1]): 35.8 nM | binding to linker-less human LDLa peptide [2]: requires the linker domain for binding | IC50 (rat RXFP2 [4]): 0.75 nM | IC50 (rat RXFP2 [5]): 1.72 nM
B2: 4B1: Human/rat cross-reactive RXFP2 monoclonal antibody, rat IgG2b backbone; requires the linker domain for binding (antibody, V domains shown)
VH: QVQLQQSGAELVRPGSSVRISCKASGYAFSNSWINWVKQRPGQGLEWMGQIYPGDGNTNYNGRFKDKATLTADKSSSTAYMQLSSLTSEDSAVYFCARDHNYWGQGTTLTVSS
VL: DVVMTQTPLTLSVTIGQPASISCKSSQSLLYSNGKTYLNWLLQRPGQSPKRLIYLVSYLDSGVPDRFTGSGSGTNFILNISRVEADDLGVYYCLQGTHFPRTFGGGTKLEIK
apparent volume of distribution ([3]; Wistar Han rats, 1 mg/kg sc.): 0.133 ± 0.005 L/kg | half-life ([3]; Wistar Han rats, 1 mg/kg sc.): 6.25 days | estimated dose to achieve tenfold higher IC50 HEK-rRXFP2 cAMP activity for approximately 28 days in rat ([3]; from trough concentration, dose-linearity assumed): approximately 1324 mg/kg | AUClast [3, 7]: 1540 ± 94 µg·h/mL | CL/F (apparent clearance) [3, 7]: 0.62 ± 0.03 mL/h/kg | Cmax [3, 7]: 5130 ± 334 ng/mL | T1/2 (terminal half-life) [3, 7]: 150 ± 9 h | Tmax [3, 7]: 96 ± 0 h
